Measurements reported in the supplement of paper PMC11417369.
± gives the standard deviation of the averaged measurements. The list shows a part of the results.

Each sequence was assayed on PfAP2-LT AP2 domain (GST-tagged) (assay: gcPBM binding intensity (ln(normalized median fluorescence intensity)); higher = stronger DNA binding).
Outline: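 An Agilent 4 × 180k array of primer-extended double-stranded 36-bp intergenic genomic probes, with negative controls, was incubated for 1 h with GST-tagged P. falciparum DNA-binding domains expressed in E. coli. Alexa488 anti-GST antibody detected bound protein, scanned at 488 nm. Binding intensity is the highest Masliner-normalised natural-log median intensity across replicate spots of either probe orientation.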

In order of falling “gcPBM binding intensity (ln)” value:
1. CAACAAAAGAAACACACACACACAAACACAAAAAAA [CACACA_site3389]  9.91 ± 0.16
2. ACATGTACAGAAATTTATATATATATATATATATAT [CACACA_negctrl_site1584]  9.9 ± 0.32
3. CACAAAAGTAAGCACGCACACACAACATGAAATAAA [CACACA_site7938]  9.68 ± 0.47
4. ATTTGACACGTATATGCACACACCCGTAAGTGTCCA [CACACA_site8891]  9.57 ± 0.33
5. ATTTTATTTTTTCACACACACATATATATATATATA [CACACA_site3334]  9.54 ± 0.23
6. TAAATAAATACATACACACACATACCTATATTTATA [CACACA_site7466]  9.52 ± 0.19
7. TATATGCAAAATGTCACACATGTGATAAATACATAT [CACACA_site4302]  9.52 ± 0.27
8. TAAGCACAAGCACAAGCACACATTTATATATATATA [CACACA_site883]  9.465 ± 0.021
9. TTATAAAAATATTACGCACACACAAACTTATTCATT [CACACA_site1970]  9.37 ± 0.24
10. GGGAAACGATTTAATACACACACGTATTATATATAT [CACACA_site1160]  9.32 ± 0.28
11. ATATATATATATATATGTACGTAAACAAAAATTTAT [XGTACX_site6780]  9.31 ± 0.23
12. TAATTACCATATGGTACACACATATATATCTGTATA [CACACA_site5849]  9.31 ± 0.33
13. AAGAATTATAGAAACACACATACATACAGACATACA [CACACA_site1943]  9.3 ± 0.41
14. ATGTATCGTAACAAATGTACAAGAGGATGTTTAGAC [XGTACX_site3355]  9.27 ± 0.47
15. ACGTTTTTGAGTAGTACACACACAATAAGGATGGAT [CACACA_site9044]  9.27 ± 0.35
16. ATATATAAATATAGCATACACACAAAAAAATAAAAT [CACACA_site2332]  9.26 ± 0.52
17. AATAAATGTCTGTTAATGCACACGATATGTCTATAT [CACACA_site2351]  9.2 ± 0.42
18. GGATATATTATATGTACACACATATATAACGGATAT [CACACA_site1309]  9.18 ± 0.44
19. CCTCATATTATAGACACACACAAAAAAAATAAAAAA [CACACA_site180]  9.16 ± 0.56
20. TGTATACCTTAATATACACACATACATATATATATA [CACACA_site8370]  9.14 ± 0.15
21. AATATAATATATATTAGTACATATATATATATATAT [XGTACX_site870]  9.14 ± 0.4
22. GTAATTAAGATATATACACACAAAGGCTATTAAATA [CACACA_site6604]  9.08 ± 0.44
23. TGTATACACATATGTACACACATATAGATGTATATG [CACACA_site7447]  9.07 ± 0.33
24. CCCAGGAATATAAAATGTACATAAAAAATACAAATT [XGTACX_site1708]  9.07 ± 0.42
25. TCATTCTTGTGTTTATGTACACATATTTATATTGTA [XGTACX_site710]  9.07 ± 0.52
26. TATATAACTACAAGAACACACATATAAATATAAATA [CACACA_site7210]  9.06 ± 0.49
27. TATTATTTATATGATACACACGTACATATACACATA [CACACA_site9275]  9.06 ± 0.38
28. ATGTAATAAATACTACGTACATATATATGTGTTAAT [XGTACX_site3265]  9.05 ± 0.41
29. ACTGAAAAAAGAAATACACACATTCTGGATCAGATA [CACACA_site7760]  9.04 ± 0.49
30. AAAGACAAAAGGAATTGTACATAATATATAAAATAT [XGTACX_site2923]  9.03 ± 0.44
31. AATATAAATATAAATATAAATATATATATATATATA [TGCATGCA_negctrl_site603]  9.02 ± 0.13
32. ATGCAAACTAAAAGACGTACAGAAAAGTATCATACT [XGTACX_site8766]  9.02 ± 0.42
33. AACTAATAGTATATTACATGCAAAAGTAAAAGTAAA [TGCATGCA_site411]  9.02 ± 0.44
34. TTTTTTTTATTTTGTTGTACGCTTATTTGTATATAT [XGTACX_site7325]  9.02 ± 0.45
35. TATTATAATTAATATACACACGCTTATATATATATA [CACACA_site75]  8.99 ± 0.16
36. ATGTATGTGTATATATGTACATAATATATATCTTTT [XGTACX_site8666]  8.98 ± 0.38
37. TCTTCATATATAATTGTACACACAAAAACGACATTG [CACACA_site8645]  8.98 ± 0.38
38. ACAAATAAAAAAATTACACACATATATAATATATAT [CACACA_site1361]  8.97 ± 0.4
39. TCTTTGTATATATGTTCATTTGTAATATATATTCAT [TGCATGCA_negctrl_site467]  8.96 ± 0.39
40. AATACACACCTGTGGGTGCTTATAATAAGCCACAAA  8.95 ± 0.45
41. AGTACATTATAGAATACACACCTATACATTTATATA [CACACA_site6391]  8.94 ± 0.36
42. CTCACAATACTTACATGTACATATTATATATATAAA [XGTACX_site1880]  8.94 ± 0.39
43. ATATATTTATATTATACACACAAAAATATTTTGTAT [CACACA_site6262]  8.93 ± 0.42
44. ATAATGTATATTATTGCACACATATATAAAATTATG [CACACA_site8280]  8.91 ± 0.35
45. ATAATGGAAAAAAAATATAATAATACGAAATAGGAA [TGCATGCA_negctrl_site64]  8.91 ± 0.55
46. TATTGATAAAAAATATGTACATATATACATATATAT [XGTACX_site3821]  8.9 ± 0.48
47. TTCATTAAAACGAATACACACATAAATATATAAAAG [CACACA_site4824]  8.89 ± 0.37
48. TATTTGGGTATTTTTACACACATTAATATATATATA [CACACA_site9114]  8.89 ± 0.4
49. ATATACATATTTTTGACACACATTAGGAAAATATAT [CACACA_site4123]  8.86 ± 0.41
50. AATAATATCTGAAAATGTACATTTTATTATAAACAT [XGTACX_site8441]  8.86 ± 0.45
51. AAAGATAATAATATGCGTACATAAAAATATATGATA [XGTACX_site6884]  8.86 ± 0.53
52. TATTAACTCAATAGCGCACACTTTTAATATTTTATA [CACACA_site4973]  8.85 ± 0.45
53. ATCGCATATACATTATATTTTATAATAATTATTTTT [GTGCAC_negctrl_site48]  8.84 ± 0.49
54. AGTGCATAATATTTATGTACGTATCACATATATTTT [XGTACX_site5166]  8.83 ± 0.38
55. AGTAGTCTGGAGAAAAGTACACAGTATCTGGTAACA [XGTACX_site2034]  8.79 ± 0.57
56. AAATATATATATATTACACACTATATATTTATTTAT [CACACA_site681]  8.79 ± 0.38
57. ATTATTATGTATTGCCGTACACATATTATCACAGAA [XGTACX_site3740]  8.79 ± 0.46
58. GATATATTTTGTTATGTAGATGTTGGTAGGAATTTT [GTGCAC_negctrl_site485]  8.78 ± 0.37
59. GTATTTATATGATTAACACACATATGTGGATTAATA [CACACA_site1315]  8.78 ± 0.39
60. ATAATAATATAAAAATGTACATATATTTATAATTGT [XGTACX_site3429]  8.78 ± 0.45
61. TATTTGTGAAGAAATTGTACTCATATCTACATTTAT [XGTACX_site2245]  8.75 ± 0.45
62. TGAATCAATTGTTGCTGTACATAAGGTATACAATAA [XGTACX_site5127]  8.72 ± 0.45
63. AGTTAAATGAATCAATACATAAATATGTATATATAT [TGCATGCA_negctrl_site539]  8.7 ± 0.44
64. ATATAATAATATTATACATGCAAAATATGTTCTTCA [TGCATGCA_site115]  8.69 ± 0.41
65. AAAAATAAAATAAAATAAAATAAAAATAAAGAAAAA [CACACA_negctrl_site808]  8.68 ± 0.71
66. TTTATGTGTTATAAATGTACATAATATAATTCGTAT [XGTACX_site3845]  8.66 ± 0.4
67. AGACTATCATTTTTTTAACACACAAAAAAAATAAAA [CACACA_site9173]  8.63 ± 0.43
68. AAGAAGAGTTATTGTAGTACATTTTTAAATGTAATA [XGTACX_site7664]  8.63 ± 0.54
69. GTTGAAATAAAATTAGTGCATATATAAATATATATA  8.63 ± 0.47
70. CATTTTTTGTAAAATCGTACATATACATAAAGTGGT [XGTACX_site3423]  8.62 ± 0.35
71. TATAAATAAACATTTACACACTCTTATAATAAATAT [CACACA_site1679]  8.62 ± 0.39
72. TAACAAATATTATTTTGTACATAATATATATATATA [XGTACX_site6898]  8.6 ± 0.32
73. ACATAATATTGAAGAAGTACAAATTTTATTTATTAT [XGTACX_site4113]  8.6 ± 0.47
74. ATATAAAATATGAGTAGTACATATTTTCTCATCTTA [XGTACX_site8595]  8.59 ± 0.45
75. TCATTATTATATAATTGTACATAATAATTATATCCA [XGTACX_site1801]  8.53 ± 0.47
76. TGATTATTTTATATTTGTACACATATCATATAAAAA [XGTACX_site5868]  8.53 ± 0.47
77. TATATATATTAATTTATTTATTTGTTTATTTATTTA [CACACA_negctrl_site185]  8.52 ± 0.49
78. GGAACCATCCAAAAAAAAAAAAAAAATAATAATAAT [CACACA_negctrl_site383]  8.5 ± 0.58
79. TTATCATTTTTGGAATGTACTTACATTAAATATTTA [XGTACX_site4034]  8.49 ± 0.52
80. TTTTTTTTTTTTGGATGTACTTAATGAAAATGTTAC [XGTACX_site8980]  8.46 ± 0.45
81. TCATAAAAAGGAATCTTTAAGATATTTTATAAGCTC [XGTACX_negctrl_site18]  8.39 ± 0.44
82. TTAATTCTATACATAAATTATGTTTACATAAAGAAT [GTGCAC_negctrl_site246]  8.38 ± 0.42
83. TTTTTTTAATAAATTTATAACAATATGATAGGTGAC [CACACA_negctrl_site1783]  8.34 ± 0.45
84. TTTTATAAAAACAAAAACAAAGGCACTTTCTAAAGA [XGTACX_negctrl_site130]  8.32 ± 0.45
85. AATTTTATTTAAAGTGCATGTAAAATTAAAACTTTT [TGCATGCA_site989]  8.28 ± 0.43
86. TATGAATTTATCTACAACATTTGAAATAAATTAAAA [CACACA_negctrl_site79]  8.19 ± 0.33
87. TATTTTTTTATTTATTGTACTTTAAAAAAAATTAAA [XGTACX_site6167]  8.16 ± 0.5
88. TTTCTTTATTTATAATAATTTTTTATTAAAAATAGA [CACACA_negctrl_site1610]  8 ± 0.49
